# Experimental data taken from PubChem BioAssay AID493208 (National Center for Advancing Translational Sciences (NCATS), 2011).
# Hit rate of the full screen: of about 44,000 compounds, about 340 (0.77%) were called active. This list was built around the results that the source calls inconclusive (neither active nor inactive); the mix of calls is not that of the screen. Calls follow the shape of the dose curve; as a rule, active = well fitted inhibition curve with a large enough effect; inconclusive = small, poorly fitted or top-dose-only effect; inactive = flat fitted curve, though single readings scatter. No potency is given beside an inconclusive call; the fits are too rough.
# Assay: Acumen qHTS Assay for Inhibitors of the mTORC1 Signaling Pathway in MEF (Tsc2-/-, p53-/-) Cells: Sytravon; also: nearly all actives have a fitted effect of over 50% in size;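 as to activity change, negative = inhibition: plate controls were DMSO for no effect and rapamycin for full effect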
# Conditions: phospho-rpS6 immunofluorescence/PI, 24 h; series mostly up to 38.3 µM; activity change, negative = inhibition: at the top concentration
# Method in brief: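 Plate MEFs (Tsc2-/-, p53-/-, empty vector) in DMEM/10% FBS; after 24 h add compound, incubate 24 h at 37 degree Celsius; fix in PFA/TX-100, block, stain phospho-rpS6 and 10 uM PI; scan at 488 nm; report % positive cells.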
# Potency is read from the fitted curve at half-maximal effect; tags tell the direction and shape of the fitted curve.
SMILES,Potency,"activity change, negative = inhibition"
CCOc1ccc(S(=O)(=O)N(CC(=O)Nc2ccc3c(c2)OCO3)c2ccccc2)cc1,"inconclusive [falling, partial curve, poor fit]",
COc1ccccc1CNC(=O)c1ccc2c(c1)CCN2S(=O)(=O)c1ccccc1,"inconclusive [falling, single point]",
COC(=O)c1scc(-c2ccc(C)cc2)c1S(=O)(=O)Nc1ccc(N(C)C)cc1,"inconclusive [falling, single point]",
Cc1ccccc1Nc1c(-c2ccc(Cl)s2)nc2cccc(C)n12,"inconclusive [falling, single point]",
Cc1cccc(OCC(=O)Nc2ccccc2OCc2cc(=O)n3ccccc3n2)c1,"inconclusive [falling, single point]",
Cc1nc2c(C(=O)NCCc3ccc(Cl)cc3)c[nH]n2c(=O)c1Cc1ccc(Cl)cc1,,inactive: -16.5%
Cc1cc(Br)ccc1NC(=O)C1CCN(S(=O)(=O)c2cccc3nsnc23)CC1,"inconclusive [falling, partial curve, poor fit]",
Cn1nnnc1SCCCNCc1ccccc1OCc1ccccc1Cl,"inconclusive [falling, partial curve, poor fit]",
Cc1cccc(Cn2c(=O)n(CC3CCC(C(=O)N4CCOCC4)CC3)c(=O)c3sccc32)c1 (stereo unspecified),,inactive: -0.792%
CCOc1ccc(CCNC(=O)c2ccc(Nc3nc4ccccc4n4nnnc34)cc2)cc1OCC,,inactive: -0.838%
Cc1ccc(C2CC(=O)Nc3cc4c(cc32)OCCO4)cc1 (stereo unspecified),,inactive: -16.8%
COc1ccc(CCNC(=O)CCc2cn(Cc3ccc(F)cc3)c3ccccc23)cc1OC,"inconclusive [falling, single point]",
Cc1ccc(NC(=O)c2c(C)oc3ccc(O)c(CN(C)Cc4ccccc4)c23)c(C)c1,active: 14.7 µM,
CCOCCCn1c(=N)c(C(=O)NC(C)c2ccccc2)cc2c(=O)n3cccc(C)c3nc21 (stereo unspecified),"inconclusive [falling, single point]",
Cc1ccc2occ(CC(=O)Nc3ccc(Cl)c(C(F)(F)F)c3)c2c1,active: 11.7 µM,
CCOc1ccc(NC(=O)C2CCN(S(=O)(=O)c3c(C)noc3/C=C/c3ccco3)CC2)cc1,,inactive: -0.091%
COc1cc(-c2oc3ccc(C)cc3c(=O)c2O)cc(OC)c1OC,"inconclusive [falling, single point]",
O=C(NCCS(=O)(=O)N1CCN(c2ccccc2F)CC1)C1CC(=O)N(c2ccccc2)C1 (stereo unspecified),"inconclusive [falling, full curve, poor fit]",
CCc1ccccc1NC(=O)C(CC)Oc1ccccc1-c1nnc(-c2ccccc2)o1 (stereo unspecified),,inactive: -21.9%
CC(=O)N1CCOc2cc(S(=O)(=O)Nc3c(C)cccc3C(C)C)c(Cl)cc21,"inconclusive [falling, single point]",
CCOC(=O)c1ccc(N2C(=O)c3[nH]nc(-c4ccccc4)c3C2c2ccc(CC)cc2)cc1 (stereo unspecified),"inconclusive [falling, single point]",
COc1ccc(S(=O)(=O)NCC(c2ccco2)S(=O)(=O)c2ccc(C)cc2)cc1F (stereo unspecified),,inactive: -6.11%

SMILES,Potency,"activity change, negative = inhibition"
Cc1ccc(Cn2c(C(=O)O)c(CNCc3ccc(OC(C)C)cc3)c3ccc(C)cc32)cc1,"inconclusive [falling, single point]",
COc1cccc(OCc2nc3ccccc3n2CCOc2ccc(C)cc2)c1,"inconclusive [falling, single point]",
Cc1ccc(Sc2c(C)nn(-c3ccccc3)c2OC(=O)C(C)(C)C)cc1,,inactive: 8.81%
COc1cccc(-c2ccc3c(N)c(C(=O)Nc4cc(C(F)(F)F)ccc4OC)sc3n2)c1,"inconclusive [falling, full curve]",
Cc1ccc(C(=O)c2cn(CC(=O)NCc3ccccc3Cl)c3nc(C)ccc3c2=O)cc1,"inconclusive [falling, partial curve, poor fit]",
O=C(NCCCc1nc2ccccc2n1Cc1ccc(Cl)cc1)C1CCCCC1,,inactive: -1.52%
Cc1ccc(-n2ncc(C(=O)NCCN3CCCC3)c2C2CCN(C(=O)OC(C)(C)C)CC2)cc1C,"inconclusive [falling, single point]",
CCCS(=O)(=O)N1CC(=O)N(c2cccc(Cl)c2C)C(C)(C(=O)NC2CCCC2)C1 (stereo unspecified),,inactive: 1.39%
CCCCCn1c(CCNC(=O)c2ccc(F)cc2)nc2ccccc21,"inconclusive [falling, partial curve, poor fit]",
COc1ccc(-c2cn3c(n2)sc2cc(C(=O)Nc4ccc(C)c(C)c4)ccc23)cc1,"inconclusive [falling, single point]",
Cc1ccc(CSc2cn(CC(=O)N3CCCC3)c3ccccc23)cc1,"inconclusive [falling, partial curve, poor fit]",
CCn1c(=O)sc2cc(NS(=O)(=O)c3ccc(F)c(C)c3)ccc21,,inactive: -17.2%
COc1ccc(NC(=O)Nc2nnc(C)s2)cc1,,inactive: -0.451%
CCN(CC)CCNC(=O)c1c(C)oc2ncn(C)c(=O)c12,,inactive: -4.44%
Cc1oc2ccc(O)c(CN(C)Cc3ccccc3)c2c1C(=O)Nc1ccccc1,"inconclusive [falling, single point]",
Cc1ccc(C(=O)CC2(O)C(=O)N(Cc3ccccc3F)c3ccccc32)cc1 (stereo unspecified),"inconclusive [falling, partial curve, poor fit]",
Cc1ccc(CN(Cc2ccco2)C(=O)COc2ccccc2C)cc1,"inconclusive [falling, single point]",
COc1cccc(C2=C(C(C)=O)Sc3nncn3N2C(C)=O)c1,,inactive: -9.98%
CCOc1ccc(C(=O)/C=C/c2cn(CC(O)CN3CCCCCC3)c3ccccc23)cc1 (stereo unspecified),active: 14.7 µM,
CCOC(=O)c1ccccc1NC(=O)C1CCN(c2ncnc3c2nc2n3CCCCC2)CC1,,inactive: -4.35%
CCC1(C)CC(=O)c2c(ccc3oc(C(=O)NCc4ccccc4)c(C)c23)O1 (stereo unspecified),"inconclusive [falling, single point]",
CCc1nnc(NC(=O)c2nc(S(=O)(=O)Cc3ccc(C)cc3)ncc2Cl)s1,"inconclusive [falling, single point]",

SMILES,Potency,"activity change, negative = inhibition"
Cn1nc(C(=O)NCc2ccc(Cl)cc2)c2c1-c1ccccc1S(=O)(=O)C2,,inactive: 9.26%
COc1ccccc1Nc1c2c(nc3ccc(NC(=O)/C=C/c4cccc(OC)c4OC)cc13)CCCC2,active: 4.14 µM,
Cc1cc(C)cc(OCC(=O)NCC(c2ccc(Cl)cc2)N2CCCCC2)c1 (stereo unspecified),"inconclusive [falling, single point]",
CCOc1ccc2nc(N3CCN(C(=O)CS(=O)(=O)c4ccc(F)cc4)CC3)sc2c1,,inactive: -7.88%
Cn1nc(C(=O)N2CCN(c3ccc(Cl)cc3)CC2)c2c1-c1ccccc1SC2,"inconclusive [falling, partial curve, poor fit]",
c1ccc(CNc2nc3ccccc3c3nc(-c4ccccc4)nn23)cc1,,inactive: -12.4%
COc1ccc(S(=O)(=O)N(Cc2nc(-c3ccc(C)cc3)no2)C2CCCCC2)cc1,"inconclusive [falling, single point]",
CCOC(=O)CNC(=O)Nc1cc(C(=O)NCc2cccc(F)c2)ccc1N1CCCC1,"inconclusive [activator, single point]",
Cc1ccc(-c2nc3scc(CCNC(=O)c4cccc(Br)c4)n3n2)cc1,"inconclusive [falling, single point]",
COc1cc(Cl)c(C)cc1NC(=O)CCc1nc2cccnc2n1-c1ccccc1,"inconclusive [falling, partial curve, poor fit]",
Cc1nc(-c2ccc(F)cc2)sc1CCNC(=O)C(=O)Nc1ccc2c(c1)OCCO2,"inconclusive [falling, single point]",
CCc1ccc(S(=O)(=O)c2nnn3c2nc(Nc2ccc(NC(C)=O)cc2)c2sccc23)cc1,,inactive: 1.45%
CCOc1ccc(N(Cc2ccccc2)C(=O)c2nc(S(C)(=O)=O)ncc2Cl)cc1,active: 0.736 µM,
O=S(=O)(NCc1nc2cccnc2n1Cc1ccccc1Cl)c1ccc(F)c(Cl)c1,"inconclusive [falling, single point]",
CC(=O)c1c(C)oc2c1cc(NS(=O)(=O)c1ccc(Cl)c(C)c1)c1ccccc12,"inconclusive [falling, single point]",
O=C(CSCc1ccc(F)cc1)N1CCc2c([nH]c3ccccc23)C1c1ccc(Cl)cc1 (stereo unspecified),"inconclusive [falling, partial curve, poor fit]",
Cc1ccc(SCc2nc(-c3ccc(C(=O)NCCc4ccc(Cl)cc4)cc3)oc2C)cc1,"inconclusive [falling, single point]",
N#CC1=C2SCN(C3CCCCC3)CN2C(=O)CC1c1ccc(Cl)cc1 (stereo unspecified),,inactive: 6.56%
COc1ccc2c(CNCCc3cccs3)c(C(=O)O)n(Cc3ccc(F)cc3Cl)c2c1,"inconclusive [falling, single point]",
COc1ccccc1NC(=O)Cn1c(SCC(=O)Nc2ccc(F)cc2)nc2ccccc21,"inconclusive [falling, partial curve, poor fit]",
CCNS(=O)(=O)c1ccc(NC(=O)CSc2nc(-c3ccco3)cc(C(F)(F)F)n2)cc1,"inconclusive [falling, full curve, poor fit]",
Cc1ccc(S(=O)(=O)Nc2cccc(-c3ccc(N4CCC(C)CC4)nn3)c2)s1,"inconclusive [falling, single point]",
